Values marked as one replicate rest on one cluster of the flow cell; about a third of the high ones do not repeat.

Results on 67 sequences are retold here after the supplement of paper PMC10126150.

The series has as its system ATP. The series can be described thus: switch fluorescence ratio, 500 uM ATP over buffer (Cy3 cluster intensity, sum of 5 cycles each) (fold (ratio)); higher = stronger signal-on switching upon ATP binding; sequences stand for … in TCGTCGGCAGCGTCAGATGTGTATAAGAGACAGTTTTTTTTTTTTTTTTTTTTTTTTT…TC. Conditions: aptamer strand: ATP DNA aptamer (quencher-CACCTGGGGGAGTATTGCGGAGGAAGG + anchor), 100 nM annealed; ATP concentration: 500 uM; one replicate. Put shortly: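 Five buffer/ATP imaging cycles were run on Cy3-labelled switching-strand clusters on a modified Illumina MiSeq flow-cell, with NaOH stripping and re-annealing between cycles. In each cycle, clusters annealed to 100 nM quencher-labelled ATP aptamer were imaged in selection buffer, then after 15 min with 500 uM ATP at 22 °C. Per cluster, the fluorescence ratio is summed target-cycle over summed buffer-cycle Cy3 intensity, averaged per switch-domain sequence. Only clusters within 100-1000 RFU were kept.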
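Also: ATP exposure 15 min at 22 °C before imaging.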

GAACACATTA: the switch fluorescence ratio is 1.07.
ACGGGAAGTA: the switch fluorescence ratio was 1.04.
The same measure for CAGTCTCGCC: 1.02.
The result for TCGTAGATAT reads 0.999.
The same measure for ATAGGACTCT: 1.03.
Turning to GTCGGGGCCA, the switch fluorescence ratio was found to be 1.01.
For the sequence ATGTAAACTC, the switch fluorescence ratio was 0.944.
The result for TGGATCAGAT reads 0.994.
The result for TAACACAAAT reads 0.981.
The result for GATGGCTCCA reads 1.02.
As to GCTGCCGGGA, the switch fluorescence ratio was 1.
CGCCTATGTA: the switch fluorescence ratio turned out to be 1.
The result for TCATTTTG reads 1.01; that for AATACTCACT, 1.45; that for GCGGGTTTTG, 0.972.
The result for AGGGCTCTGT reads 1.02; that for ATTCTTTCGG, 0.973.
The same measure for GCTTCGGGAG: 1.08; for ACGGGTCAGG: 1.03.
For CAGTGTATAT, the switch fluorescence ratio amounted to 0.985.
For AATTTCCAAG, the switch fluorescence ratio was determined as 1.01.
The result for TCTCGGACGC reads 1.25; that for AGTATTAGGT, 1.01.
The same measure for CAAGTCGGG: 0.953; for ACTGCCTCGT: 1.12.
The result for AGTCGGATCA reads 1.02; that for ACCACAACTA, 1.07.
Turning to CGCCGTACGC, the switch fluorescence ratio worked out at 1.07.
The same measure for GAAGTAGTGT: 0.993; for TCGCTTAATG: 1.01; for TCCATAATCT: 1.07.
As to CGTCACGGCG, the switch fluorescence ratio was determined as 1.03.
For the sequence TTCATAGAGC, the switch fluorescence ratio was 1.06.
The same measure for TTTCTCTGTA: 0.995.
The result for ATTGTTCAT reads 1.04; that for AGGGGCGATT, 0.979.
The result for AGGACATGGG reads 1.01.
GGAACAATG: the switch fluorescence ratio was determined as 0.988.
Regarding CTTGCTAAAT, the switch fluorescence ratio worked out at 0.933.
Take TGGTCTAGAT: the switch fluorescence ratio stood at 0.982.
The same measure for GAATACAACA: 1.01.
Take AATATGTATT: the switch fluorescence ratio is 0.986.
Regarding CGATGATGG, the switch fluorescence ratio stood at 1.01.
TATCGTTGAG: the switch fluorescence ratio is 1.03.
Take TTTCGCTATC: the switch fluorescence ratio is 4.4.
As to TGGCGGCAAT, the switch fluorescence ratio amounted to 2.28.
TGGTGGGAT: the switch fluorescence ratio is 1.02.
The result for CGTAACAACA reads 1.01; that for TACTAACGTA, 1.48.
For GTAGGCCCTG, the switch fluorescence ratio was found to be 0.986.
For the sequence GGAGATGTTT, the switch fluorescence ratio was 1.02.
For ATTCGGTGA, the switch fluorescence ratio was 0.999.
The same measure for CCGGGCTGTG: 1.03; for GGTTCACGGA: 0.976.
Turning to AGAGAGGGAG, the switch fluorescence ratio worked out at 1.01.
Take GTTGCTAAAG: the switch fluorescence ratio was 0.961.
The same measure for CTCATATTAA: 1.02; for TTAAATCGCC: 0.983; for ATTATAACTT: 1.01.
In the case of CCTCTCGACG, the switch fluorescence ratio is 1.27.
Regarding CCCATTCGC, the switch fluorescence ratio was found to be 1.11.
The same measure for TTTGCGGACG: 0.987; for GCGGCGTGTA: 1.01; for GCAACATAAC: 1.2.
With GTGCTGAAGG, the switch fluorescence ratio is 0.963.
Consider GGACCCCG, for which the switch fluorescence ratio is 0.874.
The same measure for TATTGTGTCA: 0.962.
